# Measured values published in the supplement of paper PMC8728848.
# Some of the results follow.
# Key:
# Test in all cases: glycan array binding signal (z-score within array); higher = stronger binding
# Conditions in all cases: glycan notation: IUPAC condensed, linker removed
# Neu5Ac(a2-3)GalNAc = molecular target: Neu5Ac(a2-3)GalNAc
# How it was run: (§1)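 Glycan array data were curated from 3228 arrays in the Consortium for Functional Glycomics database and kept only where the protein sequence was available. Glycan names were converted to IUPAC-condensed notation, and columns mapping to the same glycan were averaged. The binding signal is a within-array Z-score, averaged across arrays of the same protein sequence at different concentrations or buffers and across linkers. Negative Z-scores can be read as non-binding.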
# [1] = molecular target: Neu5Ac(a2-3)GalNAc(b1-4)GlcNAc
# How it was run: as §1
# [2] = molecular target: Neu5Ac(a2-3)[GalNAc(b1-4)]Gal(b1-4)Glc
# How it was run: as §1
# [3] = molecular target: Neu5Ac(a2-3)[GalNAc(b1-4)]Gal(b1-4)GlcNAc
# How it was run: as §1
# [4] = molecular target: Neu5Ac(a2-3)[GalNAc(b1-4)]Gal(b1-4)GlcNAc(b1-3)GalNAc
# How it was run: as §1
# [5] = molecular target: Neu5Ac(a2-3)[Neu5Ac(a2-6)]GalNAc
# How it was run: as §1
# Neu5Ac(a2-6)Gal = molecular target: Neu5Ac(a2-6)Gal
# How it was run: as §1
# [6] = molecular target: Neu5Ac(a2-6)Gal(b1-3)GlcNAc(b1-3)[Gal(b1-4)GlcNAc(b1-6)]Gal(b1-4)Glc
# How it was run: as §1
# Neu5Ac(a2-6)Gal(b1-4)Glc = molecular target: Neu5Ac(a2-6)Gal(b1-4)Glc
# How it was run: as §1
# [7] = molecular target: Neu5Ac(a2-6)Gal(b1-4)GlcNAc
# How it was run: as §1
# [8] = molecular target: Neu5Ac(a2-6)Gal(b1-4)GlcNAc(b1-2)Man
# How it was run: as §1
# [9] = molecular target: Neu5Ac(a2-6)Gal(b1-4)GlcNAc(b1-2)Man(a1-3)Man(b1-4)GlcNAc(b1-4)GlcNAc
# How it was run: as §1
# [10] = molecular target: Neu5Ac(a2-6)Gal(b1-4)GlcNAc(b1-2)Man(a1-3)[Gal(b1-4)GlcNAc(b1-2)Man(a1-6)]Man(b1-4)GlcNAc(b1-4)GlcNAc
# How it was run: as §1
# [11] = molecular target: Neu5Ac(a2-6)Gal(b1-4)GlcNAc(b1-2)Man(a1-3)[GlcNAc(b1-2)Man(a1-6)]Man(b1-4)GlcNAc(b1-4)GlcNAc
# How it was run: as §1
# [12] = molecular target: Neu5Ac(a2-6)Gal(b1-4)GlcNAc(b1-2)Man(a1-3)[GlcNAc(b1-4)][Neu5Ac(a2-6)Gal(b1-4)GlcNAc(b1-2)Man(a1-6)]Man(b1-4)GlcNAc(b1-4)GlcNAc
# How it was run: as §1
# [13] = molecular target: Neu5Ac(a2-6)Gal(b1-4)GlcNAc(b1-2)Man(a1-3)[Man(a1-6)]Man(b1-4)GlcNAc(b1-4)GlcNAc
# How it was run: as §1
# [14] = molecular target: Neu5Ac(a2-6)Gal(b1-4)GlcNAc(b1-2)Man(a1-3)[Neu5Ac(a2-3)Gal(b1-4)GlcNAc(b1-2)Man(a1-6)]Man(b1-4)GlcNAc(b1-4)GlcNAc
# How it was run: as §1
# [15] = molecular target: Neu5Ac(a2-6)Gal(b1-4)GlcNAc(b1-2)Man(a1-3)[Neu5Ac(a2-6)Gal(b1-4)GlcNAc(b1-2)Man(a1-6)]Man(b1-4)GlcNAc(b1-4)GlcNAc
# How it was run: as §1
# [16] = molecular target: Neu5Ac(a2-6)Gal(b1-4)GlcNAc(b1-2)Man(a1-3)[Neu5Ac(a2-6)Gal(b1-4)GlcNAc(b1-2)Man(a1-6)]Man(b1-4)GlcNAc(b1-4)[Fuc(a1-6)]GlcNAc
# How it was run: as §1
# [17] = molecular target: Neu5Ac(a2-6)Gal(b1-4)GlcNAc(b1-2)Man(a1-6)Man(b1-4)GlcNAc(b1-4)GlcNAc
# How it was run: as §1
# [18] = molecular target: Neu5Ac(a2-6)Gal(b1-4)GlcNAc(b1-2)Man(a1-6)[Gal(b1-4)GlcNAc(b1-2)Man(a1-3)]Man(b1-4)GlcNAc(b1-4)GlcNAc
# How it was run: as §1
# [19] = molecular target: Neu5Ac(a2-6)Gal(b1-4)GlcNAc(b1-2)Man(a1-6)[GlcNAc(b1-2)Man(a1-3)]Man(b1-4)GlcNAc(b1-4)GlcNAc
# How it was run: as §1
# [20] = molecular target: Neu5Ac(a2-6)Gal(b1-4)GlcNAc(b1-2)Man(a1-6)[Man(a1-3)]Man(b1-4)GlcNAc(b1-4)GlcNAc
# How it was run: as §1
# [21] = molecular target: Neu5Ac(a2-6)Gal(b1-4)GlcNAc(b1-2)[Neu5Ac(a2-6)Gal(b1-4)GlcNAc(b1-4)]Man(a1-3)[GlcNAc(b1-4)][Neu5Ac(a2-6)Gal(b1-4)GlcNAc(b1-2)[Neu5Ac(a2-6)Gal(b1-4)GlcNAc(b1-6)]Man(a1-6)]Man(b1-4)GlcNAc(b1-4)GlcNAc
# How it was run: as §1
# [22] = molecular target: Neu5Ac(a2-6)Gal(b1-4)GlcNAc(b1-2)[Neu5Ac(a2-6)Gal(b1-4)GlcNAc(b1-4)]Man(a1-3)[GlcNAc(b1-4)][Neu5Ac(a2-6)Gal(b1-4)GlcNAc(b1-4)Man(a1-6)]Man(b1-4)GlcNAc(b1-4)GlcNAc
# How it was run: as §1
# [23] = molecular target: Neu5Ac(a2-6)Gal(b1-4)GlcNAc(b1-2)[Neu5Ac(a2-6)Gal(b1-4)GlcNAc(b1-6)]Man(a1-6)[Neu5Ac(a2-6)Gal(b1-4)GlcNAc(b1-2)Man(a1-3)][GlcNAc(b1-4)]Man(b1-4)GlcNAc(b1-4)GlcNAc
# How it was run: as §1
# [24] = molecular target: Neu5Ac(a2-6)Gal(b1-4)GlcNAc(b1-3)Gal(b1-3)GlcNAc
# How it was run: as §1
# [25] = molecular target: Neu5Ac(a2-6)Gal(b1-4)GlcNAc(b1-3)Gal(b1-4)GlcNAc
# How it was run: as §1
# [26] = molecular target: Neu5Ac(a2-6)Gal(b1-4)GlcNAc(b1-3)Gal(b1-4)GlcNAc(b1-2)Man(a1-3)[Neu5Ac(a2-6)Gal(b1-4)GlcNAc(b1-3)Gal(b1-4)GlcNAc(b1-2)Man(a1-6)]GalNAc
# How it was run: as §1
# [27] = molecular target: Neu5Ac(a2-6)Gal(b1-4)GlcNAc(b1-3)Gal(b1-4)GlcNAc(b1-3)Gal(b1-4)GlcNAc
# How it was run: as §1
# [28] = molecular target: Neu5Ac(a2-6)Gal(b1-4)GlcNAc(b1-3)Gal(b1-4)GlcNAc(b1-3)Gal(b1-4)GlcNAc(b1-2)Man(a1-3)[Neu5Ac(a2-6)Gal(b1-4)GlcNAc(b1-3)Gal(b1-4)GlcNAc(b1-3)Gal(b1-4)GlcNAc(b1-2)Man(a1-6)]GalNAc
# How it was run: as §1
# [29] = molecular target: Neu5Ac(a2-6)Gal(b1-4)GlcNAc(b1-3)Gal(b1-4)GlcNAc(b1-3)GalNAc
# How it was run: as §1
# [30] = molecular target: Neu5Ac(a2-6)Gal(b1-4)GlcNAc(b1-3)Gal(b1-4)GlcNAc(b1-3)[Neu5Ac(a2-6)Gal(b1-4)GlcNAc(b1-3)Gal(b1-4)GlcNAc(b1-6)]GalNAc
# How it was run: as §1
# [31] = molecular target: Neu5Ac(a2-6)Gal(b1-4)GlcNAc(b1-3)Gal(b1-4)GlcNAc(b1-6)[Gal(b1-3)]GalNAc
# How it was run: as §1
# [32] = molecular target: Neu5Ac(a2-6)Gal(b1-4)GlcNAc(b1-3)Gal(b1-4)[Fuc(a1-3)]GlcNAc(b1-3)Gal(b1-4)[Fuc(a1-3)]GlcNAc
# How it was run: as §1
# [33] = molecular target: Neu5Ac(a2-6)Gal(b1-4)GlcNAc(b1-3)GalNAc
# How it was run: as §1
# [34] = molecular target: Neu5Ac(a2-6)Gal(b1-4)GlcNAc(b1-3)[Neu5Ac(a2-6)Gal(b1-4)GlcNAc(b1-6)]GalNAc
# How it was run: as §1
binder,measurement,setting,value
PX14375C-bth-509-28-509 (Bacteroides thetaiotaomicron) (protein) RSPQGQFTEDDNPNALVNGKIYNVYTMMRSFDITAGTPAIAIHYLRSEDSEKGSIPSDGSDVAEMYDDFLYTPTNGLLGSYWGKNYAIIYQCNDILDAIAEKETAGQTETEDIINKGEASFFRAYCYFNLVRAFGEVPLVTYKINDASEANIPKTTADKIYEQIDTDLKTAEESLPETWSTEYTGRLTWGAARSLHARTYMMRSDWDNMYKASTDVINKGLYNLKTPYNEIFTDDGENSGGSIFELQCTATAALPQSDVIGSQFCEVQGVRGAGQWDLGWGWHMATQLMADAYETGDPRKNATLLYFRKTDDEPITPENTNEPYGESPISPAMGAYFNKKAYTDPALRKEYTNKGFWVNIRLIRYSDVVLMAAEAANEKNIPGEAVDYLEMVRARARGTNTNILPKITTNDQGELREAIRHERRVELGLEPDRFYDLVRWGIASEVLHAAGKVNYQDKNALLPLPQSEIDKSKGVLVQNPDY,glycan array binding signal (z-score),Neu5Ac(a2-3)GalNAc,-0.31
same,glycan array binding signal (z-score),[1],-0.6
same,glycan array binding signal (z-score),[2],-0.197
same,glycan array binding signal (z-score),[3],-0.411
same,glycan array binding signal (z-score),[4],0.323
same,glycan array binding signal (z-score),[5],-0.456
same,glycan array binding signal (z-score),Neu5Ac(a2-6)Gal,-0.311
same,glycan array binding signal (z-score),[6],-0.383
same,glycan array binding signal (z-score),Neu5Ac(a2-6)Gal(b1-4)Glc,-0.175
same,glycan array binding signal (z-score),[7],-0.163
same,glycan array binding signal (z-score),[8],-0.274
same,glycan array binding signal (z-score),[9],-0.115
same,glycan array binding signal (z-score),[10],-0.22
same,glycan array binding signal (z-score),[11],-0.055
same,glycan array binding signal (z-score),[12],-0.163
same,glycan array binding signal (z-score),[13],-0.251
same,glycan array binding signal (z-score),[14],-0.241
same,glycan array binding signal (z-score),[15],-0.245
same,glycan array binding signal (z-score),[16],-0.145
same,glycan array binding signal (z-score),[17],0.109
same,glycan array binding signal (z-score),[18],-0.442
same,glycan array binding signal (z-score),[19],-0.185
same,glycan array binding signal (z-score),[20],-0.42
same,glycan array binding signal (z-score),[21],0.105
same,glycan array binding signal (z-score),[22],-0.331
same,glycan array binding signal (z-score),[23],-0.21
same,glycan array binding signal (z-score),[24],-0.357
same,glycan array binding signal (z-score),[25],-0.057
same,glycan array binding signal (z-score),[26],0.333
same,glycan array binding signal (z-score),[27],-0.449
same,glycan array binding signal (z-score),[28],0.19
same,glycan array binding signal (z-score),[29],-0.226
same,glycan array binding signal (z-score),[30],-0.341
same,glycan array binding signal (z-score),[31],-0.11
same,glycan array binding signal (z-score),[32],-0.086
same,glycan array binding signal (z-score),[33],0.155
same,glycan array binding signal (z-score),[34],-0.322
